± gives the standard deviation of the averaged measurements. In all, about 4,000 sequences were measured (“arbitrary fluorescence units”: median about 830, highest 2% from about 6,500 on). The list lacks most of the strong results.
Biological target: RUNX1 (UniProt Q01196)
Assay: RUNX1 binding intensity (PBM fluorescence), RUNX1 alone (arbitrary fluorescence units); higher = stronger binding
Details: RUNX1 concentration 2 nM; ETS1 concentration 0 nM
Experimental: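 gcPBM on 36-bp genomic-derived probes (partner site mutated) containing one RUNX1 site and no ETS1 site. Recombinant human RUNX1 (2 nM) was incubated alone or with ETS1 (25 nM) and detected by anti-RUNX1 antibody fluorescence. Values are medians over 4 replicate spots (not normalised). The probes sit in constant array flanks that are not printed.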
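Further: Full-length recombinant human RUNX1 bound to double-stranded DNA microarray spots, detected with an Alexa488-labelled secondary antibody after the anti-RUNX1 primary, read as scanned spot fluorescence.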

Sequence of UniProt Q01196 (Q01196 whole entry): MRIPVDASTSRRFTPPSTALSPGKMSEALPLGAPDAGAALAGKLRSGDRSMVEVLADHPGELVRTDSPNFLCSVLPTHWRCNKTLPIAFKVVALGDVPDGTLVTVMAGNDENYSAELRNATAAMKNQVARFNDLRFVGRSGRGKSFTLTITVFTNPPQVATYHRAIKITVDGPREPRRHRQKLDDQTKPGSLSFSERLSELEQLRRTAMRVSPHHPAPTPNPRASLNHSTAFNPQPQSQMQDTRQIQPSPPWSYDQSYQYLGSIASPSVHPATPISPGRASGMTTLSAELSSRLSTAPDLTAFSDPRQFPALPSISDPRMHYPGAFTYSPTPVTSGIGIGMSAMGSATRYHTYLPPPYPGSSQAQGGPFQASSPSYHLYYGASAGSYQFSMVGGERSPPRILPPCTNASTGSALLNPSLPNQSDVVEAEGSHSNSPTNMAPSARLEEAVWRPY

Sequence	RUNX1 binding intensity
CGAAGTCAGCGCGGTCAGAGAAAGGAGGTGATATAG	756
GGGCTTGCGGATCTGGCCGCCGATTCCCGTCCAGGG	795
CGGCGGTGGCGGTAGCTCCACTGCCGCTCCGATCGC	710
GCTCGGCAATACCAATATTGGGCTGTGGTATTTGAA	863
CTGTGAGGCGGCAGTGGCGGGCTCTGTGGGCGCAAG	657
TTAGTAGGAACCACAAGGCTCTCACAGCATAAACTG	897
GCAGCGTCTCCATCCACGGCAGCGGCAGCGGTCGCT	813
TGGTGTGAGGTGTGGCTTTGTCTTCATGAGCGGTGT	760
CCGCCCACAAGGAGGACTGAGACGCTTTGCCTGATA	872
GGCCTCAGAAAACTTAACAGTTGTGGCAGAAGGTGA	662
GCTGAGGCCGTAAGAGGGTGGGGCCGCGGTGGCTAG	662
ACTGTGGTTTATGAAAGAGCTTTTAGGAGACATTTA	1340
TGGTCGCGGTTTGGAACTGCGCGGGAGGTGGGTGGT	2230
CACCCCGCCTCTGCGGGACCACTTCAGGCGCCTTCT	876
GCCCCAGCAAGAGCGCTCCCGCGAACTGCGGCGGTG	814
GTTTTGTGGCTTTTTAAGCATGACATACAGCATATT	1880
TACCGGCGGTAATATAGTAAGGGCGGCAGTTCTCCT	844
AGCTGCGGTAGGGGGCAGAACCGGGAATCGGGTGTT	925
TAAGTGAATTTGCTGCCCGCCTCCGCCCACAGCGTA	782
TTTCGAGAAAACTGGAAGTGCGTGGTCACGCCCCGC	713
AAAATTAAAGCAGGCAGTAATCAACCACATCAAATG	844
GGCTTCTTATTGTGGCTTACACTTGCTCAGTAGATG	914
CTCGGCGCGACGGCTATTCCCGTGACCGCCGGGTTC	875
CACCTCCTCCTCGGGGGCCTCAGAAAACCACAGGGC	1030
CTGCAGATGGAGCCTGCTCCTGCAAACCCACTGCTG	682

Sequence	RUNX1 binding intensity
GAGGTGCTGCGGGCCAGCCAGCTGTCATCGTGTCTG	727
CTCGTGGGTGCCGTAAGTGGAGGCGGTTGGTGGGGT	755
AGCAAGATAACCGCTGATCAGGAGCAGCAAGAGGCT	758
TGCATGTGGGAGATAAGCAGAGGATCAGGCTGGGGT	695
TGGAGGTGGTTACACACAGCTGTCTCCGTGAGGGTG	768
GTGCTCCCTGCTCGCACTGACTCATCCCGCAGCTGA	791
AGGCAAACTACAGAAAGATCCTGCCCGCAACTTGGT	781
GGTGCGGCTGTGCGGGCGGGGCCGGGAGTGTGGGGA	864
CAGGGGGCTGAACGTAAAACGCCTTGTGGCCGACGC	732
GATTCCTGAACCGCGGGGAAGGCAGTCCCTGTGAGG	828
ACAACCCGCTCTGTGGCGGGGCTTCAGGTCGGGAGG	796
GCTGCTAGGTGCCACCACAGGAGGAATCAAAAATAT	771
CGGGACACATGAAGCCGTTGTGGGGCCCCGGGGCCA	702
TTGTGGACGCGGTTTTGGGGGCGGGTATTCGGGCCT	1050
AGGTTCCAAACCTCAACCTGCAGCCGTAAGGGGGAC	878
AGAAGGCGCCTGAAGTGGTCCCGCAGAGGCGGGGTG	797
GGTGTCTGCGGCAGCGCCTCAGAGTGGTTCCAGTCG	734
CCTCCAGCAAGCGATAAGTGACTGTGGTGGAGAGAG	752
AAGGGCCAGCAAGGGTGGAGTCTTTGCGGGGTGAGA	698
AGGACGCCCTCCTGCCGCAGACTTCCAGCGCAAGCT	811
TCGCCCGCCGCTTCATGTCGCGGCGCCGCAGAGGCC	781
CTGTGGTTTCGGTGGCTGTGACGTCGGGAGGTAAGT	837
CTCTGCGGCAGCAAGCCCCACCCCGAAAGTCGGCTG	1080
AGGTTGTGGTCGGTGACCTCCCAGTTCAGGCAGTCC	1220
CAGTTCCTTCGTCAGGTTCCTGCACTTGGCCGCAGC	905

Sequence	RUNX1 binding intensity
CAAACAGGTTCCAGCTGGACTACAGCGCCCACAATG	789
CGTACGCGCACTTTCGGTCTTTGTGGCTTGCAGCTC	965
GCGAGCACTTTCGGTGTGTGAGCCTGCGGTTGCTAC	908
CTCTCCAGACCGCGCATTTTGGGTCTCGGAGGAGGT	735
GGCTGCGACTTTCGGACTGCTCCTGGCCGCAGGGGG	830 ± 48
ACAAAAAAACCACACACCCAACGGCAACCATAGAGA	2030
GGGGGCAGGGAGCAGTGCAGCTCCTTAACCCACTTC	724
CGCCGTAGGACGAAGCCGCGGCCGCAACGCTCCTGG	678
TCAACAGCAGTAACCACAAGTCTTTCATGTCCCAGA	2670
GGGCCCCTGACGGATCAGGTGGTTGACGGGCACCTC	686
TGCAGCTTCGTCCCGCTGCTCCGCCCAGCGGTTTCT	899
GCCAGCAAGCCAAGGTCGCGCCCTCCACCGCAGGTC	746
AACACCCGATTCCCGGTTCTGCCCCCTACCGCAGCT	1130
GTGTTTACCACATGCGGGCCCTCAGCAAGTGCATCA	985
GCAAAGTTGTGGGAGCCCTACTGCCTGCGGAGCCCC	731
AGCAACCACGCACGACTCTGCTCCGTTCTGGTCCGA	805
GGATTCAGGTTAGCACGTCGCGTTCTGCCGCAGCAG	716
TAAGAAGCTCCAGCCGCAGGCACGGAGATAAACAGC	722
CTCTGTCAGGCAAATACACTTGGATGTGGTGACAGA	671
GCCGTAGCTGAAGAGTGTTCGTGGTCATGTGACGCC	695
GCGGAGGGAAGCTGAAATACTTGCGGTGGGGGCGAC	919
ACTCACCTCCGTTTAGCTTATCAACCACCAAGAGAC	1350
CTTCACTATGCATCGTGTACTGCAACCACACCAAAC	840
TTTGAGGTTCATGCTGTACTCAGAACACCCTGTTCT	804
CAAATACAGTGTGGTTTCACAGTAGGAGGTGGTGTT	1070

Sequence	RUNX1 binding intensity
GCTCGCGGTGCCTCTGGGTCAGGTGAGACGGAGGTG	755
TCTGTCACCACATCCAAGTGTATTTGCCTGACAGAG	900
CCTGTGGGCTGGGAGGCCAGGTCCTTTGCTGCCCAG	706
GCAGGGCCTGCGGCGCTCGCGGCAGTGCCACGGTGC	685
TAAGACCGCTGTAGATTGTTATGTCTGGAATCCGCT	754 ± 48
GCACCGTGGCACTGCCGCGAGCGCCGCAGGCCCTGC	739
TTGCGGGTTTTATAGCTTAACTTTTGCTTTCTGTGT	976
GGCACCCCCGCATTTCTTCGAAGAGGCAATAAATAC	846
CTCCACCACAGGGCTGGGCTGCCAGATCCCATTCAT	942
GCTGTCCGTTCCCGAGATGTTAATGCGGGATCTTGC	812
ATTTGCTGCGACCCGCAGGCGCTATCAGCTGCCGGG	658
GGCCTGCGGGAGGGCCCGCCTTGGCTGCTCCCGCTC	731
CCATGTTTCCCGCAGGCAGTCGCGTGGGAATTGACG	806
AGAGGATTGTGGGCTCACAAGCCAACATGCTGACAG	695
CTCCGCCAGCGCCCGCAGGACCCGTATGAGAGCGCA	838
TGGGGCCCGGGAGCGCTGGCGCCTTGCGGCCAGAAG	692
TTTGTTGTGGTTGGTGAGTCAATTCATCCCTCTCGC	1250
AGGCAGCACAGCAAGTTATAACCACATGTACACTTG	795
AGTTGCCTGAACTCAGAGCACAGTTGTGGTGCAGAA	747
AGTCGTTCCACCACCTCCCAGTCGGGTTGCGGCGGA	866
TTCTGTGTGGTTACTTTAAATACCAAAAGGACATGT	1570
CGGGGCCTGTGGTTACTACACTCCACTGCCTTATGA	1740
CTGGCGCCTTGCGGCCAGAAGCCCCGAATGGACGCA	784
GTGGTGGTTTTCAGGTTGATACCGCTCCCTGAAGAT	927
AAACTACATTGCCCAGCATCCCGCGCGCCGCAGACC	882

Sequence	RUNX1 binding intensity
AGTGGATAGCACTGCCTTCTCTTACCACAGTTCCTT	862
CCTCAAAACCCGGCAACGCCTTGCGGGGCAGTGTGG	793
CACGTCGCGACCGCACAGGGGGACGTTCTCCCGCCA	1080
TGCACGTGACCACGGACTTTTTTTCATAGCCGCCGA	884
AACCCTTGCTGAAAGTAGATGGGGTATAAACCACAA	932
CTCCGCCCACAGCAACACAGGCGCCTCCTTGTGCAG	901
CTGCTTTGCCCGCAGCGCTCCGTAACACCCGGCTAC	1280
ACCAACCGAAAGTGATCGTGTTGTGGCCGAAGGAGG	813
ACTTACAAAGGAGGTGACAGAACCACAGAAAAGACC	792
AGTTTTTCGTCGGGCTCCCAGTGACGCCGCAGAGGT	838
CAAGTTGTGCTCCCCCACAAGAGGAACTACTGGGCA	799
GCGGCCCTGATTCCTAATCACCACAGTCAGAACCGT	807 ± 11
GTAAAGAGCAACCGCTGACAGGACGGGGCCCAGCAG	741
ATCCCACTATAGGAGGCTTCTCTGTGGTTTTGAGCC	1040
GTATTTATTGCCTCTTCGAAGAAATGCGGGGGTGCC	821
CAGCAAGCAACCACAAAACCAGAGCGCAAGGAGGGA	2250
CTAGCACGAAACAGACAGACCCAGCCACAGAATCTC	900
CTCACAACTCGCGTACGGCGGAGACCACAATTCCCG	887
TCTGGGACATGAAAGACTTGTGGTTACTGCTGTTGA	1210
CCTCATTTACGGGCTGTTTGCGCGCAAGCCCACATC	876
GAGGACGCGAAAGTCCTTCTTGCGGGGCGGAGCTAG	699
TCAGGGCCACAAGCTTGGGGCTGCTCCCTGGAACTG	695
AAACCAACCGCAGGGAGATATAATATCTCTTCATGT	2010
AGCTACCACAGCCCAGGCCAGAGCATGAAGGGTAGA	788
CACGCCTGCTGAAGATGAAAACCACACGTCATGCAG	1010

— the supplement of paper PMC10681739
